Biological target: E. coli MenE (ecMenE) (Escherichia coli, UniProt P37353)
Experiment: MenE-MenB coupled assay (enzyme inhibition, catalytic parameters)

E. coli MenE (ecMenE), sequence (P37353 whole entry): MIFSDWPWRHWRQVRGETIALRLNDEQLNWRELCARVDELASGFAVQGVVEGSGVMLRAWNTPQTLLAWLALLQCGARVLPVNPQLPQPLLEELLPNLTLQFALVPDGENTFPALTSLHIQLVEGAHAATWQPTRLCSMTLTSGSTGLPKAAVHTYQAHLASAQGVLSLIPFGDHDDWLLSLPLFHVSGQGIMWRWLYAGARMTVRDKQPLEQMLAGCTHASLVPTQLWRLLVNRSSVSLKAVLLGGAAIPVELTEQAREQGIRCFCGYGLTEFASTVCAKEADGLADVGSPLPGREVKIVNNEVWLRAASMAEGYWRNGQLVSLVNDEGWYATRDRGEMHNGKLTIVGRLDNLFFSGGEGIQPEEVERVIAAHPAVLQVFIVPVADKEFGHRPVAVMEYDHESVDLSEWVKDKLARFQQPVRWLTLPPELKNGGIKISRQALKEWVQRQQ

`Nc1ncnc2c1ncn2[C@@H]1O[C@H](COS(=O)(=O)NC(=O)CCC2(O)NC(=O)c3ccccc32)[C@@H](O)[C@H]1O` (some centres unmarked) [Compound 108, 5′-O—(N-[3-(1-Hydroxy-3-oxoisoindolin-1-yl)propanoyl]sulfamoyl) adenosine] gave an IC50 of over 100 µM.

With `Nc1ncnc2c1ncn2[C@@H]1O[C@H](COS(=O)(=O)NC(=O)CCC2OC(=O)c3ccccc32)[C@@H](O)[C@H]1O` (some centres unmarked) [Compound 107, 5′-O—(N-[3-(3-Oxo-1,3-dihydroisobenzofuran-1-yl)propanoyl]sulfamoyl) adenosine] the IC50 was over 100 µM.

Source: patent publication US20180273573A1, “INHIBITORS OF MENAQUINONE BIOSYNTHESIS” (Memorial Sloan-Kettering Cancer Center, priority 2015, published 2018)
